# Experimental data published in PubChem BioAssay (NCI).
# “And” between values parts separate entries of the source, which are not always exact repeats. Equal entries are not always repeated.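 The compound was tested at five concentrations on cells cultured in 96-well plates, with a 48-hour exposure period. GI50 marks 50% less growth. Definition used: TGI = concentration required for complete inhibition of growth.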
# Test system: NCI-H322M lung
# Experiment: DTP human tumour cell line panel, 48 h
Compound,TGI,GI50 [µM]
Cc1cc(-c2ccc(N=Nc3ccc4c(S(=O)(=O)O)cc(S(=O)(=O)O)c(N)c4c3O)c(C)c2)ccc1N=Nc1ccc2c(S(=O)(=O)O)cc(S(=O)(=O)O)c(N)c2c1O,> 100 µM,
Cc1ccc(C(=O)Nc2ccc(CP(=O)(O)O)cc2CP(=O)(O)O)cc1N,> 100 µM,
CCOC(=O)C(Cc1ccc(N=NN(C)C)cc1)NC(=O)CC1c2ccccc2-c2ccccc21 (stereo unspecified),> 100 µM,
CCC(Oc1ccc(OC)c2c1C(=O)CCC2)C(=O)O (stereo unspecified),> 100 µM,
CCCCCCCCCC1CC(=O)OC23CCCC(=O)C12O3 (stereo unspecified),> 100 µM,
COc1ccc(/C(C=O)=C(\Cl)c2ccc(OC)c(OC)c2)cc1,> 100 µM,
Cc1ccc2ccc3c4ccccc4ccc3c2c1,> 100 µM,46.9
COc1cc(C=O)cc(C=Nc2ccc(Br)cc2)c1O,> 100 µM,
O=C1c2cccc3c(N4CCOCC4)ccc(c23)C(=O)N1CCN1CCN(CCCCCN2CCN(CCN3C(=O)c4cccc5c(N6CCOCC6)ccc(c45)C3=O)CC2)CC1,> 100 µM,81.3
COc1cc2c(cc1O)NC(=O)[C@@H]1C[C@@H](O)CN1C2=O,> 100 µM,
CC(C)(C)C(=O)c1c(O)c2ccccc2c2ccccc2c1=O,> 100 µM,
O=C1OC(=O)c2c1nc1ccccc1c2-c1ccccc1,> 100 µM,
CC(C)(C)C1=NO[C@H]2[C@@H](NC(=O)c3ccccc3)CC[C@@H]12,> 100 µM,
N#CN1CC[C@H](C(=O)Nc2ncc(-c3ccccc3)s2)C1,3.43 µM,1.78
CC(C)(C)OC(=O)N[C@H]1CC(=O)c2ccccc2N(CC(=O)O)C1=O,> 100 µM,
CCN(CC)CCNc1n[n+]([O-])c2cc([N+](=O)[O-])ccc2[n+]1[O-],6.48 µM and 8.01 µM and 6.8 µM,
CN(C)CCNC(=O)Nc1ccc(N(C)c2ccnc(Nc3ccc(CS(C)(=O)=O)cc3)n2)cc1,> 25 µM,> 25
C=CCOC(C)(C)C1=CCC(C)CC1 (stereo unspecified),> 100 µM,
CCNC(=S)N/N=C(/C)c1cccc(/C(C)=N\NC(=S)NCC)n1,> 73 µM,
COc1cccc(-c2cc(=O)c3cc(N4CCN(C)CC4)ccc3[nH]2)c1,28 µM,2.61
C[n+]1c2ccccc2n2c3ccccc3c(NCCCn3ccnc3)c(C#N)c21,17.8 µM,
O=c1c2ccc(Cl)cc2oc2c(CSc3ccccc3)cccc12,> 100 µM,
O=C(O)CCCc1ccc2c(c1)C(C(=O)O)CC2 (stereo unspecified),> 100 µM,
O=c1[nH]nc(Nc2ccc(Cl)cc2)c2nnn(C3CCCCC3)c12,> 100 µM,
COc1ccc(C2C(=O)c3ccc(OC)cc3OC2c2cccnc2)cc1 (stereo unspecified),> 100 µM,

Compound,TGI,GI50 [µM]
C[n+]1cn(CC(=O)c2ccccc2)c(C(N)=O)c1N,> 100 µM,
BrC1(c2ccccc2)C[n+]2c(-c3ccccc3)cc(-c3ccccc3)cc2-c2ccccc21 (stereo unspecified),14.6 µM,
O=C([O-])c1ccc([I+]c2ccccc2)cc1,> 100 µM,
NC1=NC(c2ccccc2Cl)c2c(n[nH]c2N)N1 (stereo unspecified),> 100 µM,40.2
OCc1ccc(-c2ccc(-c3ccc(CO)o3)o2)o1,> 100 µM,> 62.2
C/C(=N\NC(=S)N1CCC1)c1ccccn1,> 70.9 µM,0.00879
COc1cc2c(c3c1c(=O)c1ccccc1n3C)C=C([N+](=O)[O-])C(C)(C)O2,> 100 µM,
CCCC(O)[C@@]1(CC)CC(C)C(O)(C2(C)C[C@H](C)[C@@H](C(CC)C(=O)C(C)[C@@H](O)[C@H](C)C3OC(O)(C(CC)C(=O)O)[C@@H](C)C(O)C3CC)O2)O1 (stereo partly specified),6.9 µM,
O=[N+]([O-])/C=C/c1cc(Cl)c(/C=C/[N+](=O)[O-])cc1Cl,31.7 µM,
CC1CC(c2ccccc2)=Nc2ccccc2S1 (stereo unspecified),> 100 µM,
CC1CCCP(=O)(c2ccccc2)CCC1 (stereo unspecified),> 100 µM,
O=C(Nc1ccc(-n2cc(-c3ccncc3)c(-c3ccc(Cl)c(O)c3)n2)cc1)c1cc(C(F)(F)F)cc(C(F)(F)F)c1,> 100 µM,17.3
O=C1C=CC2(O)OCC3C=C4O[C@@H]5OC6(CCCCC6)O[C@@H]5C4[C@@H]2[C@@H]13 (stereo partly specified),> 100 µM,
O=[N+]([O-])c1cccnc1S(=O)(=O)c1ccccc1,35.7 µM,
COCOC1CCCC[C@@]1(OCCOCCO[C@@]1(c2ccccc2)CCCC[C@H]1OCOC)c1ccccc1 (stereo partly specified),> 100 µM,
C/C(CCN(C)C)=N/O,79.9 µM,
CCOC(=O)C1=C(C)N(NC(N)=O)C2(N)N(NC(N)=O)C(C)=C(C(=O)OCC)C12C#N (stereo unspecified),> 100 µM,
Cc1cc(OC2OC(CO)C(O)C(O)C2O)ccc1O (stereo unspecified),> 100 µM,
O=C1c2ccccc2-c2c1c1ccccc1c(=O)n2CCCNCCNCCCn1c2c(c3ccccc3c1=O)C(=O)c1ccccc1-2,2.64 µM,0.265
COc1cc2c(cc1O)C(Cc1ccc(OCc3ccccc3)c(OCc3ccccc3)c1)N(C(=O)NCCc1ccccc1)CC2 (stereo unspecified),> 100 µM,
CN(C)CCCOc1ccc(NC2=C(Cl)C(=O)C(Nc3ccc(OCCCN(C)C)cc3)=C(Cl)C2=O)cc1,2.73 µM,1.3
O=C1Nc2ccc(-c3cccnc3)cc2/C1=C/c1cc(Br)c(O)c(Br)c1,> 25 µM,7.1
O=S(Nc1ccccc1)c1ccc(Cl)cc1 (stereo unspecified),> 100 µM,
OCCN1CCN(c2nc(N3CCCC3)c3nc(Cl)c(NCc4ccccc4)nc3n2)CC1,24.2 µM,
